Test results published in the supplement of paper PMC8728848.
The other results are listed elsewhere or left out.

Legend:
Experiment in all cases: glycan array binding signal (z-score within array); higher = stronger binding
Conditions in all cases: glycan notation: IUPAC condensed, linker removed
[1] = biological target: Glc(a1-2)Glc
Summary of the method: (§1)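 Arrays were curated from the Consortium for Functional Glycomics database, 3228 in total, and kept only where the protein sequence was available. Binding is expressed as a within-array Z-score. This score was averaged across arrays of the same protein sequence at different concentrations or buffers and across linkers, and negative values can be read as non-binding.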

[2] = biological target: Glc(a1-2)Glc(a1-2)Glc
Summary of the method: as §1

[3] = biological target: Glc(a1-2)Glc(a1-2)Glc(a1-2)Glc
Summary of the method: as §1

[4] = biological target: Glc(a1-2)Glc(a1-2)Glc(a1-2)Glc(a1-2)Glc
Summary of the method: as §1

[5] = biological target: Glc(a1-2)Glc(a1-2)Glc(a1-2)Glc(a1-2)Glc(a1-2)Glc
Summary of the method: as §1

[6] = biological target: Glc(a1-2)Glc(a1-2)Glc(a1-2)Glc(a1-2)Glc(a1-2)Glc(a1-2)Glc
Summary of the method: as §1

[7] = biological target: Glc(a1-2)Glc(a1-2)Glc(a1-2)Glc(a1-2)Glc(a1-2)Glc(a1-2)Glc(a1-2)Glc
Summary of the method: as §1

[8] = biological target: Glc(a1-2)Glc(a1-2)Glc(a1-2)Glc(a1-2)Glc(a1-2)Glc(a1-2)Glc(a1-2)Glc(a1-2)Glc
Summary of the method: as §1

[9] = biological target: Glc(a1-3)Glc
Summary of the method: as §1

[10] = biological target: Glc(a1-3)Glc(a1-3)Glc
Summary of the method: as §1

[11] = biological target: Glc(a1-3)Glc(a1-3)Glc(a1-3)Glc
Summary of the method: as §1

[12] = biological target: Glc(a1-3)Glc(a1-3)Glc(a1-3)Glc(a1-3)Glc
Summary of the method: as §1

[13] = biological target: Glc(a1-3)Glc(a1-3)Glc(a1-3)Glc(a1-3)Glc(a1-3)Glc
Summary of the method: as §1

[14] = biological target: Glc(a1-3)Glc(a1-3)Glc(a1-3)Glc(a1-3)Glc(a1-3)Glc(a1-3)Glc
Summary of the method: as §1

[15] = biological target: Glc(a1-3)Glc(a1-3)Glc(a1-3)Glc(a1-3)Glc(a1-3)Glc(a1-3)Glc(a1-3)Glc
Summary of the method: as §1

[16] = biological target: Glc(a1-3)Glc(a1-3)Glc(a1-3)Glc(a1-3)Glc(a1-3)Glc(a1-3)Glc(a1-3)Glc(a1-3)Glc
Summary of the method: as §1

[17] = biological target: Glc(a1-3)Glc(a1-3)Glc(a1-3)Glc(a1-3)Glc(a1-3)Glc(a1-3)Glc(a1-3)Glc(a1-3)Glc(a1-3)Glc
Summary of the method: as §1

[18] = biological target: Glc(a1-3)Glc(a1-3)Glc(a1-3)Glc(a1-3)Glc(a1-3)Glc(a1-3)Glc(a1-3)Glc(a1-3)Glc(a1-3)Glc(a1-3)Glc
Summary of the method: as §1

[19] = biological target: Glc(a1-3)Glc(a1-3)Glc(a1-3)Glc(a1-3)Glc(a1-3)Glc(a1-3)Glc(a1-3)Glc(a1-3)Glc(a1-3)Glc(a1-3)Glc(a1-3)Glc
Summary of the method: as §1

[20] = biological target: Glc(a1-3)Glc(a1-3)Glc(a1-3)Glc(a1-3)Glc(a1-3)Glc(a1-3)Glc(a1-3)Glc(a1-3)Glc(a1-3)Glc(a1-3)Glc(a1-3)Glc(a1-3)Glc
Summary of the method: as §1

[21] = biological target: Glc(a1-4)Glc
Summary of the method: as §1

[22] = biological target: Glc(a1-4)Glc(a1-4)Glc
Summary of the method: as §1

[23] = biological target: Glc(a1-4)Glc(a1-4)Glc(a1-4)Glc
Summary of the method: as §1

[24] = biological target: Glc(a1-4)Glc(a1-4)Glc(a1-4)Glc(a1-4)Glc
Summary of the method: as §1

[25] = biological target: Glc(a1-4)Glc(a1-4)Glc(a1-4)Glc(a1-4)Glc(a1-4)Glc
Summary of the method: as §1

[26] = biological target: Glc(a1-4)Glc(a1-4)Glc(a1-4)Glc(a1-4)Glc(a1-4)Glc(a1-4)Glc
Summary of the method: as §1

[27] = biological target: Glc(a1-4)Glc(a1-4)Glc(a1-4)Glc(a1-4)Glc(a1-4)Glc(a1-4)Glc(a1-4)Glc
Summary of the method: as §1

[28] = biological target: Glc(a1-4)Glc(a1-4)Glc(a1-4)Glc(a1-4)Glc(a1-4)Glc(a1-4)Glc(a1-4)Glc(a1-4)Glc
Summary of the method: as §1

[29] = biological target: Glc(a1-4)Glc(a1-4)Glc(a1-4)Glc(a1-4)Glc(a1-4)Glc(a1-4)Glc(a1-4)Glc(a1-4)Glc(a1-4)Glc
Summary of the method: as §1

[30] = biological target: Glc(a1-4)Glc(a1-4)Glc(a1-4)Glc(a1-4)Glc(a1-4)Glc(a1-4)Glc(a1-4)Glc(a1-4)Glc(a1-4)Glc(a1-4)Glc
Summary of the method: as §1

[31] = biological target: Glc(a1-4)Glc(a1-4)Glc(a1-4)Glc(a1-4)Glc(a1-4)Glc(a1-4)Glc(a1-4)Glc(a1-4)Glc(a1-4)Glc(a1-4)Glc(a1-4)Glc
Summary of the method: as §1

[32] = biological target: Glc(a1-4)Glc(a1-4)Glc(a1-4)Glc(a1-4)Glc(a1-4)Glc(a1-4)Glc(a1-4)Glc(a1-4)Glc(a1-4)Glc(a1-4)Glc(a1-4)Glc(a1-4)Glc
Summary of the method: as §1

[33] = biological target: Glc(a1-4)Glc(a1-6)Glc
Summary of the method: as §1

[34] = biological target: Glc(a1-6)Glc
Summary of the method: as §1

[35] = biological target: Glc(a1-6)Glc(a1-4)Glc
Summary of the method: as §1

[36] = biological target: Glc(a1-6)Glc(a1-4)Glc(a1-4)Glc
Summary of the method: as §1

[37] = biological target: Glc(a1-6)Glc(a1-4)Glc(a1-4)Glc(a1-6)Glc(a1-4)Glc(a1-4)Glc
Summary of the method: as §1

[38] = biological target: Glc(a1-6)Glc(a1-6)Glc
Summary of the method: as §1

[39] = biological target: Glc(a1-6)Glc(a1-6)Glc(a1-6)Glc
Summary of the method: as §1

[40] = biological target: Glc(a1-6)Glc(a1-6)Glc(a1-6)Glc(a1-6)Glc
Summary of the method: as §1

[41] = biological target: Glc(a1-6)Glc(a1-6)Glc(a1-6)Glc(a1-6)Glc(a1-6)Glc
Summary of the method: as §1

[42] = biological target: Glc(a1-6)Glc(a1-6)Glc(a1-6)Glc(a1-6)Glc(a1-6)Glc(a1-6)Glc
Summary of the method: as §1

[43] = biological target: Glc(a1-6)Glc(a1-6)Glc(a1-6)Glc(a1-6)Glc(a1-6)Glc(a1-6)Glc(a1-6)Glc
Summary of the method: as §1

[44] = biological target: Glc(a1-6)Glc(a1-6)Glc(a1-6)Glc(a1-6)Glc(a1-6)Glc(a1-6)Glc(a1-6)Glc(a1-6)Glc
Summary of the method: as §1

[45] = biological target: Glc(a1-6)Glc(a1-6)Glc(a1-6)Glc(a1-6)Glc(a1-6)Glc(a1-6)Glc(a1-6)Glc(a1-6)Glc(a1-6)Glc
Summary of the method: as §1

[46] = biological target: Glc(a1-6)Glc(a1-6)Glc(a1-6)Glc(a1-6)Glc(a1-6)Glc(a1-6)Glc(a1-6)Glc(a1-6)Glc(a1-6)Glc(a1-6)Glc
Summary of the method: as §1

[47] = biological target: Glc(a1-6)Glc(a1-6)Glc(a1-6)Glc(a1-6)Glc(a1-6)Glc(a1-6)Glc(a1-6)Glc(a1-6)Glc(a1-6)Glc(a1-6)Glc(a1-6)Glc
Summary of the method: as §1

[48] = biological target: Glc(a1-6)Glc(a1-6)Glc(a1-6)Glc(a1-6)Glc(a1-6)Glc(a1-6)Glc(a1-6)Glc(a1-6)Glc(a1-6)Glc(a1-6)Glc(a1-6)Glc(a1-6)Glc
Summary of the method: as §1

[49] = biological target: Glc(b1-2)Glc
Summary of the method: as §1

[50] = biological target: Glc(b1-2)Glc(b1-2)Glc
Summary of the method: as §1

[51] = biological target: Glc(b1-2)Glc(b1-2)Glc(b1-2)Glc
Summary of the method: as §1

[52] = biological target: Glc(b1-2)Glc(b1-2)Glc(b1-2)Glc(b1-2)Glc
Summary of the method: as §1

[53] = biological target: Glc(b1-2)Glc(b1-2)Glc(b1-2)Glc(b1-2)Glc(b1-2)Glc
Summary of the method: as §1

[54] = biological target: Glc(b1-2)Glc(b1-2)Glc(b1-2)Glc(b1-2)Glc(b1-2)Glc(b1-2)Glc
Summary of the method: as §1

[55] = biological target: Glc(b1-2)Glc(b1-2)Glc(b1-2)Glc(b1-2)Glc(b1-2)Glc(b1-2)Glc(b1-2)Glc
Summary of the method: as §1

[56] = biological target: Glc(b1-2)Glc(b1-2)Glc(b1-2)Glc(b1-2)Glc(b1-2)Glc(b1-2)Glc(b1-2)Glc(b1-2)Glc
Summary of the method: as §1

[57] = biological target: Glc(b1-2)Glc(b1-2)Glc(b1-2)Glc(b1-2)Glc(b1-2)Glc(b1-2)Glc(b1-2)Glc(b1-2)Glc(b1-2)Glc
Summary of the method: as §1

[58] = biological target: Glc(b1-2)Glc(b1-2)Glc(b1-2)Glc(b1-2)Glc(b1-2)Glc(b1-2)Glc(b1-2)Glc(b1-2)Glc(b1-2)Glc(b1-2)Glc
Summary of the method: as §1

[59] = biological target: Glc(b1-2)Glc(b1-2)Glc(b1-2)Glc(b1-2)Glc(b1-2)Glc(b1-2)Glc(b1-2)Glc(b1-2)Glc(b1-2)Glc(b1-2)Glc(b1-2)Glc
Summary of the method: as §1

[60] = biological target: Glc(b1-2)Glc(b1-2)Glc(b1-2)Glc(b1-2)Glc(b1-2)Glc(b1-2)Glc(b1-2)Glc(b1-2)Glc(b1-2)Glc(b1-2)Glc(b1-2)Glc(b1-2)Glc
Summary of the method: as §1

B1: Cel5A (Clostridium thermocellum), P16218 (protein)
chain: AVGEKMLDDFEGVLNWGSYSGEGAKVSTKIVSGKTGNGMEVSYTGTTDGYWGTVYSLPDGDWSKWLKISFDIKSVDGSANEIRFMIAEKSINGVGDGEHWVYSITPDSSWKTIEIPFSSFRRRLDYQPPGQDMSGTLDLDNIDSIHFMYANNKSGKFVVDNIKLIGATSDPTPSIKHGDLNFDNAVNSTDLLMLKRYILKSLELGTSEQEEKFKKAADLNRDNKVDSTDLTILKRYLLKAISEIPI
[1]
  glycan array binding signal (z-score): -0.143
[2]
  glycan array binding signal (z-score): -0.143
[3]
  glycan array binding signal (z-score): -0.143
[4]
  glycan array binding signal (z-score): -0.143
[5]
  glycan array binding signal (z-score): -0.143
[6]
  glycan array binding signal (z-score): -0.143
[7]
  glycan array binding signal (z-score): -0.111
[8]
  glycan array binding signal (z-score): -0.108
[9]
  glycan array binding signal (z-score): -0.143
[10]
  glycan array binding signal (z-score): -0.143
[11]
  glycan array binding signal (z-score): -0.126
[12]
  glycan array binding signal (z-score): -0.143
[13]
  glycan array binding signal (z-score): -0.143
[14]
  glycan array binding signal (z-score): -0.143
[15]
  glycan array binding signal (z-score): -0.143
[16]
  glycan array binding signal (z-score): -0.081
[17]
  glycan array binding signal (z-score): -0.143
[18]
  glycan array binding signal (z-score): -0.143
[19]
  glycan array binding signal (z-score): 0.023
[20]
  glycan array binding signal (z-score): -0.143
[21]
  glycan array binding signal (z-score): -0.143
[22]
  glycan array binding signal (z-score): -0.143
[23]
  glycan array binding signal (z-score): -0.143
[24]
  glycan array binding signal (z-score): -0.119
[25]
  glycan array binding signal (z-score): -0.129
[26]
  glycan array binding signal (z-score): -0.107
[27]
  glycan array binding signal (z-score): -0.143
[28]
  glycan array binding signal (z-score): -0.143
[29]
  glycan array binding signal (z-score): -0.143
[30]
  glycan array binding signal (z-score): -0.064
[31]
  glycan array binding signal (z-score): -0.112
[32]
  glycan array binding signal (z-score): -0.123
[33]
  glycan array binding signal (z-score): -0.143
[34]
  glycan array binding signal (z-score): -0.136
[35]
  glycan array binding signal (z-score): -0.143
[36]
  glycan array binding signal (z-score): -0.143
[37]
  glycan array binding signal (z-score): -0.143
[38]
  glycan array binding signal (z-score): -0.143
[39]
  glycan array binding signal (z-score): -0.143
[40]
  glycan array binding signal (z-score): -0.095
[41]
  glycan array binding signal (z-score): -0.143
[42]
  glycan array binding signal (z-score): -0.143
[43]
  glycan array binding signal (z-score): -0.09
[44]
  glycan array binding signal (z-score): -0.129
[45]
  glycan array binding signal (z-score): -0.143
[46]
  glycan array binding signal (z-score): -0.143
[47]
  glycan array binding signal (z-score): -0.143
[48]
  glycan array binding signal (z-score): -0.143
[49]
  glycan array binding signal (z-score): -0.137
[50]
  glycan array binding signal (z-score): -0.143
[51]
  glycan array binding signal (z-score): -0.062
[52]
  glycan array binding signal (z-score): -0.143
[53]
  glycan array binding signal (z-score): -0.143
[54]
  glycan array binding signal (z-score): -0.101
[55]
  glycan array binding signal (z-score): -0.143
[56]
  glycan array binding signal (z-score): -0.143
[57]
  glycan array binding signal (z-score): -0.143
[58]
  glycan array binding signal (z-score): -0.143
[59]
  glycan array binding signal (z-score): -0.143
[60]
  glycan array binding signal (z-score): -0.143
